{"source": "the supplement of paper PMC11417369", "note": "± gives the standard deviation of the averaged measurements. The list shows a part of the results.", "data": [{"test_system": "PfAP2-G AP2 domain (GST-tagged)", "assay": "gcPBM binding intensity (ln(normalized median fluorescence intensity)); higher = stronger DNA binding", "how_it_was_run": "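Binding of GST-tagged P. falciparum DNA-binding domains, expressed in E. coli and used at about 25 μg on average, was carried out for 1 h in 1× PBS containing 1% milk, 0.2 mg/ml BSA, 0.5% salmon testes DNA and 0.03% Triton X-100. The target was an Agilent 4 × 180k array of primer-extended double-stranded 36-bp intergenic genomic probes plus negative controls, read with Alexa488 anti-GST antibody at 488 nm. Binding intensity is the highest Masliner-normalised natural-log median intensity across replicate spots of either probe orientation.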", "values": [{"sequence": "TTATTAAAAAAAATATGTACTCACAATATAATATAT [XGTACX_site3738]", "gcPBM binding intensity (ln)": "11.4 ± 0.97"}, {"sequence": "GAAATTTTTAAAAAGGTGCTTTTAACAAAAATTATT [GTGCAC_site9687]", "gcPBM binding intensity (ln)": "9.99 ± 0.16"}, {"sequence": "TTAGCAACTATTACTACACACATTTGTATATAATTT [CACACA_site1591]", "gcPBM binding intensity (ln)": "10.04 ± 0.092"}, {"sequence": "AAGGATATAAAAAAACGTACGTACGATAATATAATT [XGTACX_site1292]", "gcPBM binding intensity (ln)": "11.6 ± 0.91"}, {"sequence": "AAAAAAAAAAAAAGATGTACATATATTTTTATTATA [XGTACX_site654]", "gcPBM binding intensity (ln)": "11.4 ± 0.96"}, {"sequence": "AAGTTTTCTTACAGATGTACTTTTTAAAAATAAACT [XGTACX_site6632]", "gcPBM binding intensity (ln)": "11.4 ± 0.92"}, {"sequence": "ATATATATCTATATTTGTACATATTACATTCAAGTT [XGTACX_site1749]", "gcPBM binding intensity (ln)": "10.9 ± 0.4"}, {"sequence": "TTTAGGAAAGGCGGCACACATTTATATATTTATTTA [CACACA_site5931]", "gcPBM binding intensity (ln)": "9.98 ± 0.042"}, {"sequence": "AGTATTTTAATTTCAGTGCATTTTATTCTATAATTA", "gcPBM binding intensity (ln)": "10.1 ± 0.18"}, {"sequence": "AAAAAAAAAAAAAATGCATGTGCGTAAATAATAATA [TGCATGCA_site793]", "gcPBM binding intensity (ln)": "10.2 ± 0.19"}, {"sequence": "CACAAAAAAGTTCATACACACAACATATTTATATAT [CACACA_site2887]", "gcPBM binding intensity (ln)": "10.09 ± 0.035"}, {"sequence": "ATCATTTTTTATGCGTGTACATAAATTTATTAGGTT [XGTACX_site2786]", "gcPBM binding intensity (ln)": "11.4 ± 0.85"}, {"sequence": "TTTTTTGTTAAACCGGTGCATATAAATATATATATA [GTGCAC_site9989]", "gcPBM binding intensity (ln)": "10.1 ± 0.42"}, {"sequence": "TAATTATTACACGGTATTATATATAATATGTTAAAA [GTGCAC_negctrl_site134]", "gcPBM binding intensity (ln)": "9.9 ± 0.042"}, {"sequence": "TTTTTTTTTTTTCTGTGTACATATATAATATATATA [XGTACX_site1592]", "gcPBM binding intensity (ln)": "11.4 ± 0.98"}, {"sequence": "ATATCTATATTTTAAAGTACGTAGTAAAAAGAAAAA [XGTACX_site4323]", "gcPBM binding intensity (ln)": "11 ± 0.69"}, {"sequence": "TTGTAATGATATATTTGTACTTAATATAATTGTATA [XGTACX_site2748]", "gcPBM binding intensity (ln)": "10.9 ± 0.65"}, {"sequence": "AATAAATTGAAACACACACACACATATATATATATA [CACACA_site848]", "gcPBM binding intensity (ln)": "10.2 ± 0.48"}, {"sequence": "TTATGTCGTAAATACACACATACATATACATACACA [CACACA_site1374]", "gcPBM binding intensity (ln)": "10.2 ± 0.3"}, {"sequence": "TTGTCACTAATAGATGCATGCAATCATTCCATTTTT [TGCATGCA_site938]", "gcPBM binding intensity (ln)": "9.86 ± 0.071"}, {"sequence": "ATATAAAAATACAGGTGTACATTTTTTCATATTTAT [XGTACX_site6959]", "gcPBM binding intensity (ln)": "11.3 ± 0.74"}, {"sequence": "TATTCTTATCTTACCACACACAATGTACGAAAAGAT [CACACA_site6296]", "gcPBM binding intensity (ln)": "11 ± 0.65"}, {"sequence": "CAATATTATATTACTTGTACACATATGTAGTTTCGA [XGTACX_site8945]", "gcPBM binding intensity (ln)": "11.4 ± 0.64"}, {"sequence": "TTTCCCATAGGAAAAACACACATATATTATATATAA [CACACA_site1981]", "gcPBM binding intensity (ln)": "9.825 ± 0.049"}, {"sequence": "TAACAAAACATAGATTGTACATATTATAAATGTATA [XGTACX_site1543]", "gcPBM binding intensity (ln)": "10.8 ± 0.54"}]}]}
